Assay results published in the supplement of paper PMC12217912.
Some of the results follow. Sequences were assembled here from the parent chain. Values near 0.05 are background.

B1: TEV protease; numbered along this chain (parent)
chain: MGESLFKGPRDYNPISSSICHLTNESDGHTTSLYGIGFGPFIITNKHLFRRNNGTLVVQSLHGVFKVKDTTTLQQHLVDGRDMIIIRMPKDFPPFPQKLKFREPQREERICLVTTNFQTKSMSSMVSDTSCTFPSGDGIFWKHWIQTKDGQCGSPLVSTRDGFIVGIHSASNFTNTNNYFTSVPKNFMELLTNQEAQQWVSGWRLNADSVLWGGHKVFMVKPEEPFQPVKEATQL

Variants of: B1
Experiment: raw area under fraction-flipped curve 0-4 h after induction (AUC4h, not background-subtracted), DNA-recorder readout of cleavage of the substrate (dimensionless); higher = more cleavage of the substrate by the protease variant
Settings: temperature: 34 °C; time window: 0-4 h after rhamnose induction
Experimental: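 In vivo DNA recorder in E. coli TOP10(DE3) ΔrhaA at 34 °C. Each TEVp single-site mutant (parent TEVp 0) is paired with a single-site variant of the 7-mer TEVs (canonical ENLYFQ|S). The substrate sits between flexible linkers in a Bxb1-sfGFP-TEVs-SsrA fusion, so cleavage stabilises Bxb1 and speeds flipping of a recombination array, read by NGS. The value is the raw area under the fraction-flipped curve over 0-4 h after rhamnose induction (AUC4h), with ≥20 reads per time point. It is not background-subtracted; inactive controls average about 0.047.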
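Further: Bxb1 expression induced with 0.2% (w/v) L-rhamnose at OD600 near 0.5, cultures sampled hourly, flipped fraction per protease–substrate barcode pair counted by paired-end Illumina sequencing.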

## T119V
  area with substrate ENLYAQS: 0.0714
  area with substrate ENLYDQS: 0.0218
  area with substrate ENLYEQS: 0.0596
  area with substrate ENLYGQS: 0.106
  area with substrate ENLYHQS: 0.0766
  area with substrate ENLYIQS: 0.113
  area with substrate ENLYKQS: 0.0809
  area with substrate ENLYNQS: 0.079
  area with substrate ENLYPQS: 0.0622
  area with substrate ENLYTQS: 0.0838
  area with substrate ENLYWQS: 0.0822
  area with substrate ENLYYQS: 0.0616

## P94R
  area with substrate ENLYAQS: 0.0499
  area with substrate ENLYEQS: 0.0822
  area with substrate ENLYGQS: 0.066
  area with substrate ENLYHQS: 0.0574
  area with substrate ENLYIQS: 0.179
  area with substrate ENLYLQS: 0.0722
  area with substrate ENLYMQS: 0.0827
  area with substrate ENLYNQS: 0.0683
  area with substrate ENLYPQS: 0.0862
  area with substrate ENLYQQS: 0.0585
  area with substrate ENLYWQS: 0.077

## D161I
  area with substrate ENLYAQS: 0.05
  area with substrate ENLYDQS: 0.0635
  area with substrate ENLYEQS: 0.0571
  area with substrate ENLYGQS: 0.062
  area with substrate ENLYHQS: 0.0465
  area with substrate ENLYIQS: 0.0612
  area with substrate ENLYKQS: 0.0563
  area with substrate ENLYNQS: 0.0898
  area with substrate ENLYRQS: 0.0478
  area with substrate ENLYSQS: 0.0594
  area with substrate ENLYWQS: 0.0451
  area with substrate ENLYYQS: 0.0508

## T174Q
  area with substrate ENLYAQS: 0.0616
  area with substrate ENLYDQS: 0.0649
  area with substrate ENLYEQS: 0.0612
  area with substrate ENLYGQS: 0.0781
  area with substrate ENLYHQS: 0.0606
  area with substrate ENLYIQS: 0.0997
  area with substrate ENLYKQS: 0.0603
  area with substrate ENLYMQS: 0.0712
  area with substrate ENLYNQS: 0.069
  area with substrate ENLYPQS: 0.0643
  area with substrate ENLYQQS: 0.0608
  area with substrate ENLYRQS: 0.056

## T174W
  area with substrate ENLYAQS: 0.0635
  area with substrate ENLYEQS: 0.062
  area with substrate ENLYGQS: 0.0561
  area with substrate ENLYHQS: 0.0647
  area with substrate ENLYIQS: 0.142
  area with substrate ENLYMQS: 0.0944
  area with substrate ENLYNQS: 0.0451
  area with substrate ENLYQQS: 0.0548
  area with substrate ENLYRQS: 0.0611
  area with substrate ENLYSQS: 0.0741
  area with substrate ENLYTQS: 0.0849
  area with substrate ENLYVQS: 0.107

## G138S
  area with substrate ENLYAQS: 0.0745
  area with substrate ENLYEQS: 0.0772
  area with substrate ENLYKQS: 0.0716
  area with substrate ENLYMQS: 0.0788
  area with substrate ENLYPQS: 0.0514
  area with substrate ENLYRQS: 0.0579
  area with substrate ENLYVQS: 0.111

## Q146F
  area with substrate ENLYAQS: 0.0701
  area with substrate ENLYDQS: 0.0616
  area with substrate ENLYEQS: 0.0699
  area with substrate ENLYGQS: 0.0678
  area with substrate ENLYHQS: 0.0482
  area with substrate ENLYIQS: 0.128
  area with substrate ENLYQQS: 0.0642
  area with substrate ENLYRQS: 0.014
  area with substrate ENLYYQS: 0.0566

## Q146S
  area with substrate ENLYAQS: 0.0758
  area with substrate ENLYDQS: 0.0657
  area with substrate ENLYKQS: 0.0483
  area with substrate ENLYNQS: 0.0694
  area with substrate ENLYQQS: 0.0434
  area with substrate ENLYTQS: 0.0901
  area with substrate ENLYWQS: 0.0938

## N172T
  area with substrate ENLYAQS: 0.0635
  area with substrate ENLYEQS: 0.0609
  area with substrate ENLYGQS: 0.0612
  area with substrate ENLYHQS: 0.0639
  area with substrate ENLYMQS: 0.0684
  area with substrate ENLYNQS: 0.0676
  area with substrate ENLYRQS: 0.0679
  area with substrate ENLYTQS: 0.0726
  area with substrate ENLYWQS: 0.0588

## N172I
  area with substrate ENLYAQS: 0.0457
  area with substrate ENLYDQS: 0.0623
  area with substrate ENLYEQS: 0.0466
  area with substrate ENLYGQS: 0.0532
  area with substrate ENLYHQS: 0.0709
  area with substrate ENLYIQS: 0.0437
  area with substrate ENLYKQS: 0.0507
  area with substrate ENLYMQS: 0.0546
  area with substrate ENLYPQS: 0.0572
  area with substrate ENLYQQS: 0.0678
  area with substrate ENLYRQS: 0.0392
  area with substrate ENLYSQS: 0.0471
  area with substrate ENLYVQS: 0.0786
  area with substrate ENLYWQS: 0.0605
  area with substrate ENLYYQS: 0.053

## S123R
  area with substrate ENLYAQS: 0.0675
  area with substrate ENLYEQS: 0.066
  area with substrate ENLYGQS: 0.0598
  area with substrate ENLYHQS: 0.0716
  area with substrate ENLYKQS: 0.0673
  area with substrate ENLYLQS: 0.0955
  area with substrate ENLYMQS: 0.105
  area with substrate ENLYNQS: 0.0858
  area with substrate ENLYPQS: 0.0782
  area with substrate ENLYQQS: 0.064
  area with substrate ENLYRQS: 0.0709
  area with substrate ENLYSQS: 0.0657
  area with substrate ENLYTQS: 0.0909
  area with substrate ENLYVQS: 0.126
  area with substrate ENLYWQS: 0.0821
  area with substrate ENLYYQS: 0.0601

## T147H
  area with substrate ENLYAQS: 0.08
  area with substrate ENLYCQS: 0.0755
  area with substrate ENLYDQS: 0.0711
  area with substrate ENLYEQS: 0.0664
  area with substrate ENLYGQS: 0.0421
  area with substrate ENLYHQS: 0.0554
  area with substrate ENLYIQS: 0.0642
  area with substrate ENLYKQS: 0.0577
  area with substrate ENLYMQS: 0.0432
  area with substrate ENLYNQS: 0.0544
  area with substrate ENLYPQS: 0.0552
  area with substrate ENLYQQS: 0.0626
  area with substrate ENLYRQS: 0.0565
  area with substrate ENLYTQS: 0.0694
  area with substrate ENLYVQS: 0.0792
  area with substrate ENLYWQS: 0.0666
  area with substrate ENLYYQS: 0.0591

## T147A
  area with substrate ENLYAQS: 0.0748
  area with substrate ENLYCQS: 0.078
  area with substrate ENLYDQS: 0.0695
  area with substrate ENLYGQS: 0.0617
  area with substrate ENLYHQS: 0.0657
  area with substrate ENLYKQS: 0.0589
  area with substrate ENLYLQS: 0.0604
  area with substrate ENLYMQS: 0.0682
  area with substrate ENLYNQS: 0.0574
  area with substrate ENLYPQS: 0.044
  area with substrate ENLYRQS: 0.0619
  area with substrate ENLYSQS: 0.0715
  area with substrate ENLYVQS: 0.0696
  area with substrate ENLYWQS: 0.0671
  area with substrate ENLYYQS: 0.0705

## N177D
  area with substrate ENLYAQS: 0.0796
  area with substrate ENLYDQS: 0.0433
  area with substrate ENLYEQS: 0.0732
  area with substrate ENLYGQS: 0.0646
  area with substrate ENLYHQS: 0.0531
  area with substrate ENLYIQS: 0.0856
  area with substrate ENLYMQS: 0.0795
  area with substrate ENLYNQS: 0.071
  area with substrate ENLYPQS: 0.0712
  area with substrate ENLYRQS: 0.0625
  area with substrate ENLYVQS: 0.113
  area with substrate ENLYWQS: 0.0487
  area with substrate ENLYYQS: 0.0679
